From the RNAGym collection of RNA variant scans (doi:10.7554/elife.90254)
Read counts are not given, so values of variants with three or more changes are uncertain.

B1: LINE1-full (parent)
chain: UACGUAGGUGGUUUUCCCCUGAUAGUGCUAAGGGGGCCUGGAAGUUUGGACUGGGCAGAGCUCAACACAGCGUGGCAAAGUGGCUGUGGCUAGACUGCCUCUCUGGAUUCCUCGUCACUCAGCAGGGCAUCUCUGAGAGAAAUGCC

Variants of: B1
Assay: self-cleavage, relative activity (ratio to wild type); higher = more cleavage; in vitro, sequencing; the parent is a self-cleaving ribozyme

Variant	self-cleavage
A42G U87C C118A	0.32
A42G A92G G93A U130A U134C	0.26
A42C G55C A77G U91C	0
U39A U46A A67G U100C A107U	0.51
U39C A94G A107U	0
A42G A50G G83U A138G	0.45
G41A U52G U62G A78U	0.15
A42G A77G A92U	2.3
G40A U47C A64G A129G	0.17
U39A A65C U109C A141G	0
A42G A92G A129G	0
U39C U100A U134A	0.39
U39A A69G C71A	0.05
U39C A43G G114A U115C	1.47
G41A A43G G125U U134A	1.37
U39C U62C U91A	0
U39C A78G U104A	0.54
A42G A78G U100C C118U A124G	0
U39C A59G A64G U104A A141G	0
G41A U47A A78G A124G	0.69
U39C U52C A64G	0.44

Variant	self-cleavage
A42G U100C A121G A142G U143A	0
A42G A67U U100C U134C	0.18
U39A A107G U130C	1.4
U39C U62C A79U A138G	0.03
U39C U62C U85A	0
U39C G48A A69U A79U	0.03
A42G G53A A142U	1.63
A42G A57U C76U	0.17
U39A U132C A142G	1.66
G40A G105A A140G	0.81
A42G U52A U130C	1.11
A42G A57U U130A U134C A140G	0
A42G U62A U104C C128U A136G A141G	0.04
A42G U134C A136G	2.05
A42G A59U U85A U104C A121U U130C U134C	0
U39C A50U A78G	0.3
U39C U108A A141G A142G	0.53
A42G U47C U132C A141G	2.19
U39A A65U A92C A141G	0.12
A42G U52A A79G	1.1
A42G U96C A141G	0.19

Variant	self-cleavage
A42G A79G U115A	1.23
A42G U45C G49A	1.11
A42G A43G A140G	1.63
U39A U46C U62C	0.04
U39C U46C U81A	2.46
U39C G40U U109C	1.6
U39C U47C G105A A136G A142G	0.3
A42U A124G A140U	0.62
A42G A65C U132A	0
U39A C120U U130C	1.16
G41A A129G U143C	1.57
A42G A77G A107G	2.3
A42G G80A G126A	1.7
A42G U52A A136G A138G U143C	1.25
A42G U87C A141U	0.12
A42G U62C C120A	0.03
A42G A77G G97A	0.17
U39A U47A U130C	1.27
A42G A67G A94G A141G	0.61
U39C A64G G83A	0.15
A42U A59U A65U G72U C98G	0.02

Variant	self-cleavage
U39C U52C U130C	0.41
A42C G54A G82A U115C A117U	0.23
U39C A64G U100C	0
U39C U62C C68U	0.03
U39A U52A A65U G72A U130C	0.13
A42G U134C A138U	1.23
U39C U45C G54A	0.77
A42G U109C A124G	1.62
A42G A69U U104A	0.04
G41A U62C U102C	0.02
G40A A43G U46C U62C U85A	0.08
A42G U87C U132C	0.13
U39C U45G U132C	0.23
A42G U81A U115C	1.91
G40A U45C U87C A138G	0.24
A42U A79G U96C U100C	0.11
U39C A42G U47C	0.48
U39C A78G U109A	0.4
A42G U45C U73A	1.64
A42G A65G A92G A138G	0
U39C U96C A117U	0.06
